Residue numbers refer to the chain shown, from its start. Names and notes keep the numbering of the source. These are yes or no findings as the source states them, for the method shown. For some of these results: Binding seen in cells or lysates may run through a third protein. Some results given as binding are weak or reduced against the parent protein; the word gives no strength. For some of these results: Tags and fused reporters may be left off the sequences shown. Each block holds one molecule with its values, some of them ahead of it.
Columns and labels:
[1] = target: Myc-βTrCP (UniProt Q9Y297); assay: proximity ligation; in situ PLA in co-transfected HEK293T cells, anti-Flag and anti-Myc antibodies, signals < 40 nm; with or without MG132, GFP-DUSP22 or GFP-DUSP22 (C88S) co-expressed as told
[2] = target: Myc-SKP2 (UniProt Q13309); assay: as above
[3] = target: T1, Myc-DUSP22 (UniProt Q9NRW4); assay: as above
T1 sequence: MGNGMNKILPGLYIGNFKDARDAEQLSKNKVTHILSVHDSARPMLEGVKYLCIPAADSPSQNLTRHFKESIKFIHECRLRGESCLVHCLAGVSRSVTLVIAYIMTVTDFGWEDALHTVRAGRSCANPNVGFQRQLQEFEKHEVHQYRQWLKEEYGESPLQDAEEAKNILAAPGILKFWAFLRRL

Chains of the proteins cited; added tags and fusions are not shown. Lines headed by an entry give the natural chain unless they say otherwise; changes in a name come on top.
UniProt Q9Y297: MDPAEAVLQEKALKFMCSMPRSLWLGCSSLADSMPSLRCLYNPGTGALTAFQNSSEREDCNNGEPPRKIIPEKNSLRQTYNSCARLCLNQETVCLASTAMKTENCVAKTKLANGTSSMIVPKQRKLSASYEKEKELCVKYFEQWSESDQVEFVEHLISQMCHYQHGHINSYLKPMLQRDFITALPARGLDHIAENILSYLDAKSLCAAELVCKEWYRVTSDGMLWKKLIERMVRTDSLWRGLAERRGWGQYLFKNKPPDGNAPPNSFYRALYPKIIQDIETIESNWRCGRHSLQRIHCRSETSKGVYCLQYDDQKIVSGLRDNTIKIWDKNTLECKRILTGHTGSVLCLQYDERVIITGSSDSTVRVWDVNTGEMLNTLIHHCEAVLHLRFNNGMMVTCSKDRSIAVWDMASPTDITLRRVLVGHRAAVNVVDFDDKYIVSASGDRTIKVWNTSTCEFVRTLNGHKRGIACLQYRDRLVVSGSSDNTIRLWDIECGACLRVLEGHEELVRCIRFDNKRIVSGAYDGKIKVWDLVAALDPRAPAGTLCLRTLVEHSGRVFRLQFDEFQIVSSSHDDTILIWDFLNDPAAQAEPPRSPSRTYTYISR
UniProt Q13309: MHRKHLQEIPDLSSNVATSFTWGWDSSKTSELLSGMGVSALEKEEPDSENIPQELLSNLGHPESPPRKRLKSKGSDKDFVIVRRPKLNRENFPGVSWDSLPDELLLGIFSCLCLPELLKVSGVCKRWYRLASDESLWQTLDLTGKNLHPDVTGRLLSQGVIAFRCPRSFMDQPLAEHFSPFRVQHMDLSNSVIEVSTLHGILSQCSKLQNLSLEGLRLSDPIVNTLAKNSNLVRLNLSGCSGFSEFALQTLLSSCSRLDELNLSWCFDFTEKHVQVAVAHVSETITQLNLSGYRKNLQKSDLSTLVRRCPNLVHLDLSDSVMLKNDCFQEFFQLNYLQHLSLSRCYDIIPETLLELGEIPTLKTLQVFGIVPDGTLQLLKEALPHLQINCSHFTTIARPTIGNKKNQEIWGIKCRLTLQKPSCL
UniProt Q969H0: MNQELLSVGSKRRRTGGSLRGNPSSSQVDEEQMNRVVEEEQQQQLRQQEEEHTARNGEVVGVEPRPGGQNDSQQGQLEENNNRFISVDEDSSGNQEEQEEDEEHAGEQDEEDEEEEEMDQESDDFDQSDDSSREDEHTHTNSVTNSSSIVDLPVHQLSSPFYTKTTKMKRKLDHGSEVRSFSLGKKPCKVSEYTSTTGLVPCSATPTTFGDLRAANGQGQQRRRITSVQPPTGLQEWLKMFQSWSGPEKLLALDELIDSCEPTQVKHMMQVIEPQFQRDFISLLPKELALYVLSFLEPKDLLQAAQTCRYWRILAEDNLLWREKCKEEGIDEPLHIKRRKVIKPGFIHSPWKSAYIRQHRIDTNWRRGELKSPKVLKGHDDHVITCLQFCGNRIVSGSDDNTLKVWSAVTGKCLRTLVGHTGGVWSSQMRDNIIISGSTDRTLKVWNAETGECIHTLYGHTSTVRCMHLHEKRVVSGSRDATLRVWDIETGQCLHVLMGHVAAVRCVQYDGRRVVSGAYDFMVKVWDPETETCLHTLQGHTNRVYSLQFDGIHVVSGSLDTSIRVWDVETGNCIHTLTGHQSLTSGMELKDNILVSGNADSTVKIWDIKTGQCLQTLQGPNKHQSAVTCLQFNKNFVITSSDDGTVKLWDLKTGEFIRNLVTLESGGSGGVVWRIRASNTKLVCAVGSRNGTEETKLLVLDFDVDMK
UniProt P06239: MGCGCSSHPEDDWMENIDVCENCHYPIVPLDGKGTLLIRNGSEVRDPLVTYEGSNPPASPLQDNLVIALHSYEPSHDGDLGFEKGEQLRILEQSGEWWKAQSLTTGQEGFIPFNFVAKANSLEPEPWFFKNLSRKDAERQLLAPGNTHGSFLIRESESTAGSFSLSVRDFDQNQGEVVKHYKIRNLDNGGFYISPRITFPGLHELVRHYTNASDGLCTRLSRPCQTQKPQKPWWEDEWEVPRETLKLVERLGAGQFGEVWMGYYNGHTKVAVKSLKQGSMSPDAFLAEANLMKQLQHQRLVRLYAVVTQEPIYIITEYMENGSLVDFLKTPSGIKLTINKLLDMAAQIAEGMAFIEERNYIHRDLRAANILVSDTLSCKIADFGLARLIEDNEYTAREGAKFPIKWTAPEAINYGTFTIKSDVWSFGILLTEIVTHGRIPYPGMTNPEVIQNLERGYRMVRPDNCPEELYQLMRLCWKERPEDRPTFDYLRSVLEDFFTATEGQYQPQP
UniProt P06240: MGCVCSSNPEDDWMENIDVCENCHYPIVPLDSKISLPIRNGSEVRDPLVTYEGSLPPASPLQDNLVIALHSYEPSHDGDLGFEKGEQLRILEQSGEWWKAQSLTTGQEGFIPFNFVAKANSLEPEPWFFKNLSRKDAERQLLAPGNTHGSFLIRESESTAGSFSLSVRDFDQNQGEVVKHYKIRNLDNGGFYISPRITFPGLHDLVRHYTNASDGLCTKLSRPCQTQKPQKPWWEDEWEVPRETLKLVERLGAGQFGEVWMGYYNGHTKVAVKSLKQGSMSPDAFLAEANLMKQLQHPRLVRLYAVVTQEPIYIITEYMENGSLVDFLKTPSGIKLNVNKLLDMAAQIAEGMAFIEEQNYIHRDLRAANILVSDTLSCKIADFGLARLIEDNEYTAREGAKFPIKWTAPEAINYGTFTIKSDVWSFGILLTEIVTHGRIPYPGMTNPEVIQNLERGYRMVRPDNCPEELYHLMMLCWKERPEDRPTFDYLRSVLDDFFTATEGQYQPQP
UniProt Q8IWV8: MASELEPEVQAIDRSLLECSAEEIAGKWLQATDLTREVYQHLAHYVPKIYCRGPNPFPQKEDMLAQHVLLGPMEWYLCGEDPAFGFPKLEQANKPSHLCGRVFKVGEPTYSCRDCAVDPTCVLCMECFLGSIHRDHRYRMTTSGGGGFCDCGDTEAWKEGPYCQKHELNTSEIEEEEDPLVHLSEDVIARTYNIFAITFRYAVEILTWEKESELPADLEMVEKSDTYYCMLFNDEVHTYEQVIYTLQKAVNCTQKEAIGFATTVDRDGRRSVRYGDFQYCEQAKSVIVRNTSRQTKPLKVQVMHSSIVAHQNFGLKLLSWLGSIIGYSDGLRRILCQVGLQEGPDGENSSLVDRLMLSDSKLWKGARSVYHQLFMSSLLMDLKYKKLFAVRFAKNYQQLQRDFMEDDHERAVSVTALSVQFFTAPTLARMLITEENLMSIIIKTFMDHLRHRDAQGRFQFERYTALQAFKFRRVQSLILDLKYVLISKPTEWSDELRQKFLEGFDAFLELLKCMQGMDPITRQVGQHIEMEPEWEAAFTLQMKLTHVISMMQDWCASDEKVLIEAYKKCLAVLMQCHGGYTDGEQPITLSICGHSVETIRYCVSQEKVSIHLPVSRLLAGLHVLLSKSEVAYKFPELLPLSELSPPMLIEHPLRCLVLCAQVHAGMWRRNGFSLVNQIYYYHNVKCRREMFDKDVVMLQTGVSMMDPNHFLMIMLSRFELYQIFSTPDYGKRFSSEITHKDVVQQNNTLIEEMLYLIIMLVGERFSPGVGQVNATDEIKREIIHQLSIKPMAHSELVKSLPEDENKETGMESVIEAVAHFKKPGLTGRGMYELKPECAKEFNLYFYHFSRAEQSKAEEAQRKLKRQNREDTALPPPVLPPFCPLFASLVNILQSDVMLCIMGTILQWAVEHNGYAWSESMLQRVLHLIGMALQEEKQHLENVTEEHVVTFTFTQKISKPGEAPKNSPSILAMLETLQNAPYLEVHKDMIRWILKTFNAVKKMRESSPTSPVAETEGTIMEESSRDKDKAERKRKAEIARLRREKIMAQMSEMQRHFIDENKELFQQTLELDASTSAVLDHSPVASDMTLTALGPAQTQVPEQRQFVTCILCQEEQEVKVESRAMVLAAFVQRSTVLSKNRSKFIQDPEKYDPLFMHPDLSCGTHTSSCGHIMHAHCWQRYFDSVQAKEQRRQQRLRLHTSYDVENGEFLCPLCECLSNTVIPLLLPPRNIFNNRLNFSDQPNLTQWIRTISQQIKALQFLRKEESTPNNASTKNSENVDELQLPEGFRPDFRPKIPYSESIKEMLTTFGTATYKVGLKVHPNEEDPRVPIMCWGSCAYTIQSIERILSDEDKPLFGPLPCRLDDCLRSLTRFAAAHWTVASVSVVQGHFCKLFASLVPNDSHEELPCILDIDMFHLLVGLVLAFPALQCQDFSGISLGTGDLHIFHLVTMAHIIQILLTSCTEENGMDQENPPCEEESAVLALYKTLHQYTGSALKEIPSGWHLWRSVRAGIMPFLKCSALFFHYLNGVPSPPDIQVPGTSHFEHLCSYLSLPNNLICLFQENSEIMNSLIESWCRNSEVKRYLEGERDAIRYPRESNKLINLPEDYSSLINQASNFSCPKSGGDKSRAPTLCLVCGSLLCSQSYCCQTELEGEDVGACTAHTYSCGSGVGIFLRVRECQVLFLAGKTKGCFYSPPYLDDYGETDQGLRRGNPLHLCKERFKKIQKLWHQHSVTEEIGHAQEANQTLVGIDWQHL
UniProt Q6WKZ8: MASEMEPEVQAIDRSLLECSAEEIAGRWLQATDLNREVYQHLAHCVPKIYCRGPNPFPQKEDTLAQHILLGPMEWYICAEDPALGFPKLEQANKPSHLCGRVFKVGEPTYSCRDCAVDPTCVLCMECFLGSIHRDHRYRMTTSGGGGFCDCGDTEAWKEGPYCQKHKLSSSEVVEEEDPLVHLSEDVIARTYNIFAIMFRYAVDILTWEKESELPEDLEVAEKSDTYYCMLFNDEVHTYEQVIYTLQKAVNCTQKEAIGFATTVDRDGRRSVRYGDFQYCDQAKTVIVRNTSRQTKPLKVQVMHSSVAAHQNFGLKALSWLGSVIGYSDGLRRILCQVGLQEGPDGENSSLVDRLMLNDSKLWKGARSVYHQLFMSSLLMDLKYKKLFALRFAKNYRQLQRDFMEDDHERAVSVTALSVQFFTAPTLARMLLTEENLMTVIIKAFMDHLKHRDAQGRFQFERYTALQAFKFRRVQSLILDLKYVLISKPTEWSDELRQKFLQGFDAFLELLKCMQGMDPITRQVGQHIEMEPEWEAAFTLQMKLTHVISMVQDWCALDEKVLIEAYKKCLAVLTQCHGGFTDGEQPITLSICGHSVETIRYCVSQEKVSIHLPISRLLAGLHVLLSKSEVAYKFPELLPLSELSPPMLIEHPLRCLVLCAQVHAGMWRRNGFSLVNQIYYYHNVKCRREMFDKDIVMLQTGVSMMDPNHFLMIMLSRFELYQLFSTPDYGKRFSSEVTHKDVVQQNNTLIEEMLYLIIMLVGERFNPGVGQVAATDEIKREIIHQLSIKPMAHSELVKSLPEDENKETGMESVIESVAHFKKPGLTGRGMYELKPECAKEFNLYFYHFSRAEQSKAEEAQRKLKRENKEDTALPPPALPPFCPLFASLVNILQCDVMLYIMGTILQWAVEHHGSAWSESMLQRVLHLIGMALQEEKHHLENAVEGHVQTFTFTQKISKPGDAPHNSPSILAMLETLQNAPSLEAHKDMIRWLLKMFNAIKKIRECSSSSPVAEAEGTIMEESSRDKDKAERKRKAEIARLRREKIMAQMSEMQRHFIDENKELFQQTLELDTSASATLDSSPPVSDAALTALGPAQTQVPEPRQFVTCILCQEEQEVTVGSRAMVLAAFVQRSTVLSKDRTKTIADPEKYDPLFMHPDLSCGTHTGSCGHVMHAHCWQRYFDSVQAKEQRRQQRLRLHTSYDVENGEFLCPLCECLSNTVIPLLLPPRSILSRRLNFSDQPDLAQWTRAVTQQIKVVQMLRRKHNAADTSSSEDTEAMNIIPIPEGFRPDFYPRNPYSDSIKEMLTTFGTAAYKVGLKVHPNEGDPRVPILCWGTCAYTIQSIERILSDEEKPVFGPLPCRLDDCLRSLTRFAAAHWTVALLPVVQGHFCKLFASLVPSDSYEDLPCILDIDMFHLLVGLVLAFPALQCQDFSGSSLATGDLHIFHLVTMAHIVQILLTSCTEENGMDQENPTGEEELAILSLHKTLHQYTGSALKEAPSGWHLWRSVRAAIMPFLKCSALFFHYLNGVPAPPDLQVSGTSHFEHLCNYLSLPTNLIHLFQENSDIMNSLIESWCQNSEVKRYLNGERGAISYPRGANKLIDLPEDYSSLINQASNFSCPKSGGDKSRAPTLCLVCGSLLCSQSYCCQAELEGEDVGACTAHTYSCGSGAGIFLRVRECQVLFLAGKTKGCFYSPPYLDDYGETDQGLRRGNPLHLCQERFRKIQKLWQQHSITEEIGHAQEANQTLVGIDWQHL

[4] = target: Myc-FBXW7 (UniProt Q969H0); assay: as above
[5] = target: T2, Myc-DUSP22 (C88S) (UniProt Q9NRW4); assay: co-IP; HEK293T cells co-transfected; RIPA lysates, 1 mg, anti-Flag or anti-Myc agarose beads, 4 °C 1-2 h, washed three times; immunoblot (reciprocal for UBR2 and DUSP22)
T2 sequence: T1 sequence with C88S

[6] = target: T1, Myc-DUSP22; assay: as above
[7] = target: Myc-βTrCP (UniProt Q9Y297); assay: as above
[8] = target: T3, GST-DUSP22 (UniProt Q9NRW4); assay: pull-down; in vitro binding: purified Flag-UBR2 incubated with purified GST-DUSP22; precipitated with anti-Flag agarose beads or glutathione-sepharose at 4 °C for 2 h; immunoblot; both purified
T3 sequence: T1 sequence

[9] = target: T4, Myc-DUSP22 (in Jurkat T cells) (UniProt Q9NRW4); assay: proximity ligation; in situ PLA in MG132-treated Jurkat T cells with Flag-UBR2 and Myc-DUSP22; signals < 40 nm; confocal microscopy
T4 sequence: T1 sequence

[10] = target: Lck overexpressed in Jurkat T cells (human) (UniProt P06239); assay: co-IP; immunoprecipitation of lysates from Lck-overexpressing Jurkat T cells, anti-CD3 time course (Supplementary Fig. 6c)
[11] = target: endogenous Lck (human peripheral blood T cells) (human (endogenous in peripheral blood T cells)) (UniProt P06239); assay: proximity ligation; in situ PLA for endogenous UBR2 and Lck in peripheral blood T cells of healthy controls; cold methanol fixation, 0.1% Triton X-100
[12] = target: endogenous Lck (human peripheral blood T cells) (human (endogenous in peripheral blood T cells)) (UniProt P06239); assay: proximity ligation; in situ PLA for endogenous UBR2 and Lck in peripheral blood T cells of human SLE patients; cold methanol fixation, 0.1% Triton X-100
[13] = target: endogenous Lck (murine primary T cells) (mouse (endogenous in murine primary T cells)) (UniProt P06240); assay: co-IP; endogenous proteins in lysates of murine primary T cells stimulated with anti-CD3 for 0, 5, 10 min; antibodies and protein A/G-agarose beads, 4 °C 2 h
[14] = target: Flag-UBR2 (UniProt Q8IWV8); assay: proximity ligation; in situ PLA in co-transfected HEK293T cells, anti-Flag and anti-Myc antibodies, signals < 40 nm; with or without MG132, GFP-DUSP22 or GFP-DUSP22 (C88S) co-expressed as told

Molecule: UBR2 in the lysate of Lck-overexpressing Jurkat T cells (from UniProt Q8IWV8 1-1755)
binding [10]: binds

Molecule: endogenous UBR2 (human peripheral blood T cells) (from UniProt Q8IWV8 1-1755)
binding [11]: no binding (condition: T cells from healthy controls)
binding [12]: binds

B1: DUSP22 in the lysate of Lck-overexpressing Jurkat T cells (protein, UniProt Q9NRW4 1-184)
chain: T1 sequence
binding [10]: binds

B2: GFP-DUSP22 (C88S) (protein, UniProt Q9NRW4 1-184)
chain: T1 sequence with C88S
binding [14]: binds

Second part, the molecule after the results:

binding [1]: binds
Molecule: Flag-UBR2 (S1694A/Y1697F) (from UniProt Q8IWV8 1-1755)

binding [2]: no binding
binding [3]: binds
binding [4]: no binding
binding [1]: binds
binding [5]: binds
binding [6]: binds
binding [7]: binds
binding [8]: binds
Molecule: Flag-UBR2 (from UniProt Q8IWV8 1-1755)

binding [9]: binds
Molecule: Flag-UBR2 (in Jurkat T cells) (from UniProt Q8IWV8 1-1755)

binding [13]: binds
Molecule: endogenous UBR2 (murine primary T cells) (from UniProt Q6WKZ8 1-1755)
